Data reported in the supplement of paper PMC3334620.
In all, about 33,000 sequences were measured (“E-score (-0.5 to 0.5)”: median about -0.012, highest 2% from about 0.27 on). This is one part of the list.

target: T1, Vhr1 (UniProt P40522); experiment: PBM E-score (8-mer binding enrichment) (E-score (-0.5 to 0.5)); higher = stronger / more preferred TF binding; most listed sequences are background and not binding sites; details: protein concentration: 200 nM; construct: GST-full length
T1 sequence: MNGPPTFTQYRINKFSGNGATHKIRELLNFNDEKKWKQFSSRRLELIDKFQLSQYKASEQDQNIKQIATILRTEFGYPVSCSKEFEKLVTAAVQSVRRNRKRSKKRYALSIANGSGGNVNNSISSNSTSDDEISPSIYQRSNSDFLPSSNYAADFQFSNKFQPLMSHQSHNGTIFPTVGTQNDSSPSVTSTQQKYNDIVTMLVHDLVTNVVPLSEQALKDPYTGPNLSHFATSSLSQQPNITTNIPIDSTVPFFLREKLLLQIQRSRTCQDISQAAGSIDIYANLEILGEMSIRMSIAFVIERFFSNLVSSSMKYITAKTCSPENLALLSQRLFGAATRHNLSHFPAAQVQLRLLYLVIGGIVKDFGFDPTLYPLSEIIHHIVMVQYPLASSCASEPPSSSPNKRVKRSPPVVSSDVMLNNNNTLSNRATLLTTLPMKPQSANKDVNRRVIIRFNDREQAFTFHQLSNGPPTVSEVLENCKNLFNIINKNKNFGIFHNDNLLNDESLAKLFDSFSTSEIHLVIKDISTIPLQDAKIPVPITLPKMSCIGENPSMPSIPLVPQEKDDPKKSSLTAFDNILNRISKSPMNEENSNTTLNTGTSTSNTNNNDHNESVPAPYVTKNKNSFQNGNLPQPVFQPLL
Procedure, shortened: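 Using PURExpress in vitro transcription/translation, GST-tagged yeast transcription factors were made in full-length or DNA-binding-domain form. These were applied at about 100-200 nM to double-stranded universal all-10-mer Agilent arrays, and bound protein was detected with fluorescent anti-GST. Scans were normalised with masliner before the Universal PBM Analysis Suite assigned E-scores to ungapped eight-base words pooled with their reverse complements.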

Sequence	PBM E-score
GATCCCTA	-0.0993
GTCGGTGA	0.0643
AGGCCTAA	-0.0116
AACTCCCA	0.0624
ACACCTTG	0.0416
CCCCTGTC	-0.0862
CCGTTTTC	0.0544
ATAATATG	0.206
CGCTATCA	0.0527
GGATCGAA	-0.0912
CAACCGTA	-0.281
AAATAGCG	-0.0694
GACGCACC	0.106
CAAAACTA	0.0554
AAGCTGCC	-0.0207
AATCCTCA	-0.00545
CCGTCGTA	-0.0594
CCTTAGAG	-0.233
CCTATTCA	-0.0676
AACTCCCC	0.0106
TCTACTCA	0.112
CCGTAATC	-0.0313
CACTTGGC	-0.141
TTATAAAA	-0.0537
GAACTGTC	-0.0201

Sequence	PBM E-score
ACTCGCAG	0.158
AGGCGATG	0.149
CGAACTCG	0.0311
CCTCAGCA	-0.0472
GAGAGGAC	-0.0127
TCTCCACA	-0.0495
CACTGCGG	0.213
CAGAGGCC	-0.0619
AACAATGC	0.216
AAGGACCC	-0.13
AAGACCCT	-0.0794
GAAAATCC	-0.162
ACGAGATA	-0.143
GTATGGAC	0.0175
GCGCACGA	0.0591
GGATATCA	-0.079
GCTCAATA	0.0628
CCAGATAC	0.0239
CAGAATAA	0.0312
AGGCCTAG	-0.177
AGTTCAAA	-0.133
AACCCTAT	0.105
GCATTATA	-0.0873
ATAAATAG	-0.0761
CTGCAGAC	0.0131

Sequence	PBM E-score
GCTCGGCA	0.0799
CTGAGTAC	0.175
CCGGCATA	-0.094
CGTCTAAA	-0.184
GGTGCGAC	0.17
CAATCTAC	0.0645
CGTGGTTC	0.173
CACCCGTG	0.201
AATTCCCC	-0.00371
CTTTAGAC	-0.0927
GTCTATTA	0.0479
ACTGCCCC	-0.0425
AAGTTCGC	-0.254
TCAGTAGA	-0.00045
AAGTACAT	0.143
GGAATGAA	0.0761
TCCTGTCA	0.0334
CTAGGAAG	0.0291
AAGTTAGC	-0.244
ATATTCCG	0.0138
CGCGGAGC	0.0201
CATAGTGC	0.0414
GGTTTGAA	-0.0872
GCGGCACC	0.0617
CGCTCTTA	-0.033

Sequence	PBM E-score
CTGACCCA	0.0712
CCCGTTGC	-0.157
GCTGCGAC	-0.0289
GCAAGTTA	-0.0186
TGTGCACA	-0.272
CAACGTAG	-0.124
ATACGACG	-0.0237
GCAGACGA	0.105
CCGTTAGA	-0.163
CGAACAAG	-0.162
ATTAGAGA	-0.169
GCATGATA	0.0954
CCAGTCAG	0.0854
ACCACTAA	0.0612
ACGACAAT	0.0908
AAGGTGGT	-0.0586
ACACCCGT	0.0273
GTCCGAAA	-0.0328
CGCAAGGA	-0.0519
GGGCTATA	-0.156
AGTGTGTC	0.129
AGCCCGTC	-0.17
AAAACGAA	-0.0683
CGGATGCC	-0.13
AATATTGG	0.0108

Sequence	PBM E-score
AATGGTTG	0.0415
AGGCCGCG	-0.126
CAAACTCG	0.102
AGTATGAG	0.0941
CGTTAGAC	-0.203
ATTCGCAC	0.0743
GATAGAGA	-0.129
ACCGGAAT	-0.073
CAAATGAG	-0.248
GAACGGAA	-0.112
CCCTGGAC	-0.116
GCCTATTA	-0.0128
CACGACAG	0.0224
CATGAACA	0.0728
AATTCTCC	0.0229
GCCACCCC	-0.0413
ACAGACGT	0.048
CACATATA	0.15
TGAAGTCA	0.208
CATTGATA	0.068
ATACCCGC	0.169
CTACGGGA	-0.0509
AGTCGAAG	-0.0128
ACCTCGCT	0.0865
ACCGCACT	0.12

Sequence	PBM E-score
CCTATTTA	-0.0433
AGGAACCC	-0.112
AATAACAG	0.0471
CAACAGGA	-0.112
TATATAGA	0.126
AGGTGCGG	0.057
GGTGCACA	0.0381
ATCGAAAG	-0.0809
AAACATTT	-0.149
AAGACAGA	-0.105
GTTCGAAC	0.164
CTTAAGGA	-0.169
ATGCTCTC	-0.0255
ACGTGGCG	-0.202
ACGTGGTC	-0.0211
AGTTAATG	0.11
ATTAATCC	0.0984
CCCACGCA	0.0726
TCTGCTAA	-0.23
ACACTTAA	-0.0332
AACCCCGT	0.139
ATGTAGGG	-0.124
ACTGGATA	0.198
CTTGCTAC	-0.031
TCGTTTCA	0.0487

Sequence	PBM E-score
CGAGTCGA	0.224
ACATTGCC	-0.0607
CGGGAGAG	-0.0482
AGCGAATC	0.0953
GATACTCC	0.0481
GCCTAGAC	-0.0939
CAGTATAA	0.0454
AAACAGTC	0.105
CTCGCAAC	0.00997
GCCTACGC	0.00302
AATAATAG	-0.0397
CATCGCGC	0.104
AAAGTATG	0.0441
ACGTGGTA	0.038
CAAAAAAG	-0.111
GATACCAA	0.099
CTTGACGA	-0.0669
CGCAGCAG	-0.0145
GTGCCGAA	-0.112
AGGCAGGA	-0.0482
AAGAACAG	0.00088
AGTTGTAC	-0.0186
CGAGAGTC	0.203
CGGCTTAC	-0.0374
AAGGAAAT	-0.117

Sequence	PBM E-score
ATCTGTCC	-0.0732
AGGAGGGG	0.284
AACTCGCA	-0.0141
GCACATTA	-0.0215
AAATTGAA	-0.175
CTCACGAA	0.0327
CCTAGCCA	-0.219
ATATGGGA	0.129
AAGAGAAC	-0.147
CAAAGAAG	-0.349
CCATGGAG	0.101
GACAGCAC	0.102
GACAGAAA	0.0117
AGCGGGTC	-0.141
TAGAGATA	-0.0927
CCGACGTC	0.0678
ACTCCTCT	0.0797
CTATTCTC	-0.0617
CTGGGCAC	-0.152
CATACTAA	0.135
ACTGATAA	0.134
CATGTTAG	-0.174
ATGATTTG	0.172
AGCCGGCA	-0.12
AGAGCGAT	-0.0801

Sequence	PBM E-score
ATCTCAGG	-0.0729
AGCCAACA	-0.166
ACCAAAGC	-0.0295
AGGGTGGG	0.282
ACGCGTGC	-0.136
ATCACGTA	-0.0139
GCCACACC	0.134
ATTTGTAG	-0.154
GCACGTCA	-0.153
CCTACAAC	-0.0753
TATTATGA	0.171
GCCTGCCC	-0.118
AACCGCGG	0.225
CTGAGTTA	-0.0121
CGGGAGGC	-0.129
ATTGGATC	0.112
TGGTACAA	0.0595
ACTAATCC	0.141
CACTTTGA	-0.195
CGAATTTA	-0.067
GCAATGTA	-0.054
ACCCCTGC	-0.143
TAGGCATA	-0.0636
GCATTGGC	-0.171
AAGCGCCT	-0.204

Sequence	PBM E-score
GAGGGCCC	-0.0931
AGGCTCAT	0.109
ACCAGAAA	-0.233
CCCTCCAA	-0.0124
ACTATCTG	0.00954
AAGTGCAT	-0.123
GCGTTAAC	-0.128
CTTTATGC	-0.193
ACATCGAG	-0.0529
TTGTAAAA	-0.0435
ACAGAAAT	-0.136
TCGAAGAA	-0.0628
ACCTGTAA	-0.15
CCCAGTAA	-0.0498
CCATACAC	0.163
AGCGCGAG	0.00147
AAGCCACG	-0.0768
AAATTGGC	-0.168
AACGGCTG	-0.144
ATTCGCAG	0.0181
ACAAGGAG	0.0796
AAGTTAGA	-0.0297
ACAAGATG	0.103
CGAGATAG	-0.197
TAATCCGA	0.0399

Sequence	PBM E-score
CTTAAAAG	-0.239
CTAATGAG	0.0521
ATGTTACC	0.0597
CCGCACGA	-0.036
ATAGCACG	-0.145
AGTGCGCG	0.0395
GTGATCAA	-0.0402
GTGGACTA	0.147
GGCAGGCA	-0.175
CCTCAAGC	-0.156
AAGCGGTG	-0.183
CAAATAAA	-0.117
ACGCGCCT	0.0318
GTGCGGGA	-0.112
CCCATGAC	0.332
AAGGTATT	-0.193
AAAACGTT	-0.0927
ACCGGATA	0.0413
CAATAGTC	0.183
GCCCGTGA	0.0738
GCGAGCCC	0.182
AATAGTCG	0.148
CGGTAACA	-0.0396
CCTAGATA	-0.141
AGCTCATA	0.112

Sequence	PBM E-score
ACACAACT	0.0908
AGCATTGA	-0.0743
AGGGAGCA	-0.149
TTCGTAAA	-0.253
CTGTAGGA	-0.0533
AAGAGGCG	-0.179
AGAGCCAC	0.0667
AAGCACTT	-0.136
GCCTAGCC	-0.247
CGTGACCA	0.0998
CGGCTAGC	-0.0236
TCCCCGCA	0.0911
GGCCAAAC	-0.155
CATTGGCA	0.16
AGTCTTGG	0.099
AACTCACT	0.0454
CACATCGA	0.0352
CAAAGTTG	-0.0567
AAGAACAT	0.0425
AAGGGGAT	-0.0141
ATATTCGC	-0.0174
GTCCGAGA	-0.00966
AATCCAGC	-0.025
GATACCCC	-0.0429
ACTCATCT	0.199

Sequence	PBM E-score
CTGGAGAA	-0.236
CAATTCGG	-0.118
AGCCCCAA	-0.0947
CCACACTA	0.17
CCTATGTC	0.0253
ACGCGCAG	-0.0946
GAAATCGC	-0.0428
AACTGTTC	0.022
CCCCCTAG	-0.316
CAGATAGG	-0.0435
AGCGATAC	0.0878
CTGAATAC	0.145
TCATGCAA	0.154
CAGAAAAG	-3e-05
AAATCTCC	-0.325
AAGTCGAT	-0.0165
CTCTTTTC	-0.268
CTGAGAAA	-0.269
GACGTGTA	-0.0138
AACACGAA	0.118
CTCCCGGA	0.0804
AAGATGCG	0.0144
AGAGGACT	-0.191
AGGTTTAC	-0.112
ATCCGATA	-0.175

Sequence	PBM E-score
GGGTATCA	0.0427
CACGACAA	0.024
CTCCCCTC	0.204
AAGTACAA	0.0236
GCTGAAAA	-0.161
AACACCAC	0.0462
AGTAGTCA	0.401
CGGATCCA	0.298
GAAGGCTA	-0.161
CTATGAAC	0.107
ATGCTTGA	0.0306
ATCAGCAA	0.0473
AAAGACCC	-0.0397
TCGATCCA	-0.0434
ATGCGCGA	0.0397
ACTGGAGA	-0.131
ATCACAAG	0.0788
TACTCGCA	0.263
AAGCTACC	0.00426
